Among all 310,000 compounds or so, about 2,200 (0.71%) showed an effect of 50% or more. Effects have a minus sign here. Some of the results follow. Where a SMILES comes first, the peptide text is derived from it. [ ]: non-standard residue; d: D form. The star is where a group is joined. ξ: configuration not given here. Cbz = O=C(OCc1ccccc1)*; ξP = O=C(O)C1CCCN1
These compounds were tested against human ether-à-go-go-related gene (hERG) potassium channel (human, UniProt Q12809) (assay: primary screen, population patch clamp on CHO cells stably expressing hERG).
Chain of human ether-à-go-go-related gene (hERG) potassium channel (Q12809 whole entry, looked up): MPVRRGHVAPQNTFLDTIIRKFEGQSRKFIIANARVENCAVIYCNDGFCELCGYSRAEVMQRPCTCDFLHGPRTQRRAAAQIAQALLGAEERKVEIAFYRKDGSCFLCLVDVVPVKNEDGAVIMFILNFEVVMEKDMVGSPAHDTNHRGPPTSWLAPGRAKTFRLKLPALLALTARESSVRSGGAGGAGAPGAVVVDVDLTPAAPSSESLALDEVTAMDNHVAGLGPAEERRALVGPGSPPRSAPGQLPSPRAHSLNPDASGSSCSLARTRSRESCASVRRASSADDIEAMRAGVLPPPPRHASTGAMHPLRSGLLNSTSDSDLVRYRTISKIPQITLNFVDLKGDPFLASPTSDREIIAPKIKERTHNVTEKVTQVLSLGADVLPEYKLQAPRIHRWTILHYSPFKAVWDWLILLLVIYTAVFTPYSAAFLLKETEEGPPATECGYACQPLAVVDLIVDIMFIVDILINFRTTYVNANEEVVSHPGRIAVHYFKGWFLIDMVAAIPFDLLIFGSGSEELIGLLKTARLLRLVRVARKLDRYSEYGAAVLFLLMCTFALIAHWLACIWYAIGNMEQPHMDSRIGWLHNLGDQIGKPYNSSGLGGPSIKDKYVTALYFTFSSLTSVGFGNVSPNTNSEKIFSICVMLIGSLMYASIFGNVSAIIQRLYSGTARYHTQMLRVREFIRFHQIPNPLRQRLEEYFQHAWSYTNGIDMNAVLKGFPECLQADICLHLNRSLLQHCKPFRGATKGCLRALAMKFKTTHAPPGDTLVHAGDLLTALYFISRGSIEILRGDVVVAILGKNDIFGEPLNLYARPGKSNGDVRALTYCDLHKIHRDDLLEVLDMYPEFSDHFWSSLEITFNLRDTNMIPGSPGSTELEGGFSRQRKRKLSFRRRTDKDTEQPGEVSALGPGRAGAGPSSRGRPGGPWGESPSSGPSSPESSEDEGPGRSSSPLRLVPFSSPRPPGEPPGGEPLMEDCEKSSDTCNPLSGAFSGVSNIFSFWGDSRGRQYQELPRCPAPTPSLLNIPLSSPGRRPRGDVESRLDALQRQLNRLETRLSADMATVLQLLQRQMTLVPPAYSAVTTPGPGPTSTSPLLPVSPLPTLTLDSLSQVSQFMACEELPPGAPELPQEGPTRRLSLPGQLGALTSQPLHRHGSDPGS

SMILES	hERG current change (%, negative = inhibition) at 1uM [%]
Cn1c(=O)[nH]c(NC2CCCCC2)c([N+](=O)[O-])c1=O	9.8
COC(=O)C1N[C@@H]([C@@H](NC(=O)COc2ccccc2)C(=O)NCc2ccccc2)SC1(C)C (stereo partly shown)	10
COc1ccc(NC(=O)CCS(=O)(=O)c2ccc3nc(C)sc3c2)cc1OC	8.23
CC(c1ccccc1)N1C(=O)c2ccc(C(=O)Nc3ccc(Br)cc3C(=O)O)cc2C1=O (stereo not shown)	11.4
CCOC(=O)c1c(NC(=O)OC)sc2c1CCC2	-3.17
O=C(CN1CCN(Cc2ccccc2Cl)CC1)N/N=C/c1ccco1	1.4
CC(C)N(C(=O)COC(=O)[C@@H]1CC(O)CN1S(=O)(=O)c1ccccc1[N+](=O)[O-])C(C)C (stereo partly shown)	20.5
CCn1c(SCC(=O)N2CCC(C)CC2)nnc1-c1ccc(S(=O)(=O)N2CCN(C)CC2)cc1	1.98
CCCC(=O)c1cc2cc(Cl)ccc2oc1=O	8.92
COc1ccc(NCc2n[nH]nc2-c2ccccc2)cc1Cl	10.6
O=C(c1ccccc1)c1ccc(OCC(O)CN2CCCC2)cc1 (stereo not shown)	-8.71
COc1ccc(NC(=O)CN(C)C(=O)C(C)Oc2ccc(Br)cc2)cc1 (stereo not shown)	7.61
CC[C@@H](C)[C@H](NC(=O)C1CCN(C(=O)[C@@H](NS(=O)(=O)c2ccc(C)cc2)C(C)C)CC1)C(=O)O	20
CCCn1c(SCC(=O)NCC(=O)Nc2ccc(F)c(F)c2F)nc2ccccc2c1=O	8.5
CCn1cc(C(=O)NC2CCCCC2C)c(=O)c2ccc(C)nc21 (stereo not shown)	14.3
CCN(CC)CCC#CC1(O)c2ccccc2-c2ccccc21	14.9
COc1ccc(OC)c(/C=C2\NC(=O)NC2=O)c1	6.07
CC(C)CCC1(C)NC(=O)N(CC(=O)c2ccc[nH]2)C1=O (stereo not shown)	-3.08
O=C(COC(=O)Cn1cnc2ccccc21)Nc1ccc2c(c1)C(=O)c1ccccc1C2=O	2.39
CC12CCCCC1c1ccccc1C(=NCC(=O)O)N2 (stereo not shown)	-3.09
COCCNC(=O)CSc1nc2ccccc2c(=O)n1CCCC(=O)NCc1ccccc1	-5.34
CN1CCN(CCC(=O)N/N=C/c2ccccn2)CC1	20.1
CCn1c(SCc2nc3ccccc3s2)nnc1-c1cccs1	0.0975
O=C(NC1CCCC1)NS(=O)(=O)c1ccccc1Cl	12.4
Brc1ccccc1	3.79
CCOc1ccc(C(=O)NC(=S)Nc2ccc(NC(=O)C(C)C)cc2)cc1[N+](=O)[O-]	4.85
COc1ccc(NC(=O)CSCC(=O)Nc2cc(Cl)ccc2N2CCCC2)cc1	-2.99
Cc1cc(C(=O)NCc2ccc3c(c2)OCO3)c(C)o1	11.1

SMILES	hERG current change (%, negative = inhibition) at 1uM [%]
CC(=O)N1CCC(N2CCN(Cc3ccc(C)cc3)C(CCO)C2)CC1 (stereo not shown)	13.2
COC(=O)C1=C(C)N(c2ccc(C(=O)OC)cc2)C(=O)C1	19.4
O=C(O)CNC(=O)C1CCCN1C(=O)CNC(=O)OCc1ccccc1 (stereo not drawn) (Cbz-Gly-[ξP]-Gly-OH)	5.42
O=C(CCS(=O)(=O)c1cccc2nonc12)N1CCN(c2ccc(F)cc2)CC1	-26.3
Cc1ccc(S(=O)(=O)C(C#N)=C2N(C)c3ccccc3N2C)cc1	84.2
CC1CCC2C(C1)c1sc(=O)[nH]c1SC2(C)C (stereo not shown)	10.6
CCOC(=O)Cn1c(CN2CCOCC2)nc2c1c(=O)[nH]c(=O)n2C	10.5
COc1ccccc1N1CCN(C(=O)c2cc3c(-c4ccc(Cl)cc4)nn(C)c3s2)CC1	2.69
CSCC[C@H](NS(=O)(=O)c1ccc(C)cc1)C(=O)N1CCC(C(=O)N[C@@H](C)C(=O)O)CC1	6.46
COc1ccccc1C1C=C(c2ccc(C)cc2)Nc2nnnn21 (stereo not shown)	7.55
O=C(O)c1cccc(NC(=O)c2cn(-c3ccccc3)nc2-c2ccncc2)c1	21.1
COC(=O)c1c(NC(=O)CN2CCOCC2)sc2c1CCC(C)C2 (stereo not shown)	5.22
COc1cccc(NC(=O)C(c2ccccc2)N2CCNC(=O)C2)c1 (stereo not shown)	5.07
COc1ccc(CC(=O)Nc2cc(S(=O)(=O)N3CCCCC3)ccc2N2CCN(C)CC2)cc1	-7.26
Cc1ccc(N(C)S(=O)(=O)c2ccc(-c3ccc(=O)[nH]n3)s2)cc1C	6.6
CC(C)c1ccc2nc(N)sc2c1	4.39
O=C(c1n[nH]c2ccccc12)N1CCN(S(=O)(=O)c2ccc3ccccc3c2)CC1	-0.17
COc1ccc2c(c1)CCc1c(C(=O)NCC(C)C)noc1-2	27.2
NC(=O)Nc1ccc(C(=O)OCC(=O)Nc2cccc(S(=O)(=O)NC3=NCCC3)c2)cc1	14.4
O=C(NCCCN1CCCC1=O)c1cccc(S(=O)(=O)N2CCN(c3ccc(F)cc3)CC2)c1	9.13
CCOc1cc(/C=N/NC(=O)c2nnn(-c3nonc3N)c2C)ccc1OCc1ccc(F)cc1	13.3
COc1ccc(C(=O)c2sc3nc(-c4ccccc4)ccc3c2N)cc1	19.7
Oc1cccc(Nc2nc(N3CCOCC3)nc(N3CCOCC3)n2)c1	12.2
CCOc1ccc2[nH]c(=O)c(CN(Cc3cccs3)Cc3nnnn3C(C)(C)C)cc2c1	9.72
O=C1c2cc(S(=O)(=O)NCCCO)ccc2-c2ccc(S(=O)(=O)NCCCO)cc21	6.11
O=C(CSc1nnc(Cc2cc(=O)[nH]c(=O)[nH]2)n1-c1ccccc1)NCC1CCCO1 (stereo not shown)	1.91
CC(/C=C/c1ccc(O)cc1)=N/O	12.9

Reference: publication PMC4336329 (PLoS ONE, 2015)
